115 sequences from the BET-seq Pho4 binding data (Le et al. 2018) can be followed below.

The list shows a part of the results. Values were computed here from the reads of four pooled replicates and scatter widely.

The test addresses T1, Pho4 (S. cerevisiae) (UniProt P07270).
T1 sequence: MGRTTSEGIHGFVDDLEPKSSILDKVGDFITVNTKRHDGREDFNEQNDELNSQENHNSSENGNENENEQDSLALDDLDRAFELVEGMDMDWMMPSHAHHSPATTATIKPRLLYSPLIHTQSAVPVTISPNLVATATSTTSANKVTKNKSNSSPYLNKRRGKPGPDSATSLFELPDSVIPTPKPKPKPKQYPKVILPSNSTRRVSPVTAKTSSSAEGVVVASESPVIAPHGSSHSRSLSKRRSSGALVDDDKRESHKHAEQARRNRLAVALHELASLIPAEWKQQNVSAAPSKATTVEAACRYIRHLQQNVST
Briefly: relative binding free energy (BET-seq); higher = weaker binding. Conditions: reference: library average.
Consider TCTGTCACGTGTGGGC, for which the “relative binding free energy” value is 0.377 kJ/mol.

Regarding AATGGCACGTGGGAGG, the “relative binding free energy” value is -0.544 kJ/mol.

With TAATTCACGTGGGCTG, the “relative binding free energy” value was found to be 1 kJ/mol.

As to GGGCGCACGTGATAGT, the “relative binding free energy” value is 0.0837 kJ/mol.

As to ATTGTCACGTGTGTGC, the “relative binding free energy” value came to 0.544 kJ/mol.

On to GTGGTCACGTGCGTAT, for which the “relative binding free energy” value worked out at 0.544 kJ/mol.

Regarding AGTCGCACGTGTGGGA, the “relative binding free energy” value was determined as 0.167 kJ/mol.

With TTAAGCACGTGGTGCT, the “relative binding free energy” value is -0.335 kJ/mol.

Consider ATGGCCACGTGAGGTG, for which the “relative binding free energy” value was 0.795 kJ/mol.

With TTTGGCACGTGGGGAA, the “relative binding free energy” value was -0.418 kJ/mol.

As to ATTGGCACGTGCAGTT, the “relative binding free energy” value is -0.669 kJ/mol.

With ATGTCCACGTGTATTG, the “relative binding free energy” value is 0.167 kJ/mol.

Regarding GGGGGCACGTGGAGTG, the “relative binding free energy” value is -0.335 kJ/mol.

Take CATTTCACGTGCGTGG: the “relative binding free energy” value is 0.46 kJ/mol.

In the case of CGGGTCACGTGGAGGT, the “relative binding free energy” value is 0.795 kJ/mol.

On to AGGAGCACGTGGTATG, for which the “relative binding free energy” value is -0.962 kJ/mol.

In the case of TGTGACACGTGTCGGC, the “relative binding free energy” value is -0.209 kJ/mol.

On to CGTTTCACGTGGCTAG, for which the “relative binding free energy” value was 1.09 kJ/mol.

For TAGAGCACGTGTTATT, the “relative binding free energy” value is -0.544 kJ/mol.

For the sequence TTGATCACGTGTCTTT, the “relative binding free energy” value came to 0.377 kJ/mol.

For TAGGGCACGTGTGATA, the “relative binding free energy” value is 0 kJ/mol.

For TTTTGCACGTGAGATC, the “relative binding free energy” value was 0.711 kJ/mol.

For the sequence TTAATCACGTGAGGAT, the “relative binding free energy” value worked out at 1.46 kJ/mol.

Take TGTCGCACGTGGACTG: the “relative binding free energy” value worked out at 0.0418 kJ/mol.

Consider TAGCTCACGTGGATTG, for which the “relative binding free energy” value turned out to be 1.13 kJ/mol.

As for GATTACACGTGAGTAT, the “relative binding free energy” value was found to be 1.51 kJ/mol.

With GCATGCACGTGGTGGA, the “relative binding free energy” value is -0.46 kJ/mol.

With GGAGGCACGTGTTACG, the “relative binding free energy” value is -0.209 kJ/mol.

On to TATTACACGTGGTCAT, for which the “relative binding free energy” value is 0.126 kJ/mol.

As to GCCTGCACGTGGTGGG, the “relative binding free energy” value was 0.0418 kJ/mol.

As for GTTCTCACGTGAGAGT, the “relative binding free energy” value was 2.22 kJ/mol.

TTTGCCACGTGAGGTT: the “relative binding free energy” value was determined as 0.544 kJ/mol.

Consider ACTGCCACGTGGTTGT, for which the “relative binding free energy” value is -0.126 kJ/mol.

Consider GTGTACACGTGTCAGG, for which the “relative binding free energy” value was determined as 0 kJ/mol.

As for TAATTCACGTGGGAAT, the “relative binding free energy” value came to 0.628 kJ/mol.

For the sequence GACTGCACGTGTGGAG, the “relative binding free energy” value was 0.586 kJ/mol.

Regarding TTTGTCACGTGTCGGC, the “relative binding free energy” value was found to be 0.126 kJ/mol.

With GTATGCACGTGTGATG, the “relative binding free energy” value was 0.46 kJ/mol.

As to TGGAGCACGTGGGCGA, the “relative binding free energy” value was -0.753 kJ/mol.

On to CTTGACACGTGGCTGG, for which the “relative binding free energy” value is -0.0837 kJ/mol.

On to AGGGGCACGTGCGACG, for which the “relative binding free energy” value was -0.962 kJ/mol.

As for ATGGGCACGTGGGTTG, the “relative binding free energy” value was -0.628 kJ/mol.

For the sequence AGTTTCACGTGTTGAA, the “relative binding free energy” value was 1.59 kJ/mol.

As for TGGAACACGTGTGTCT, the “relative binding free energy” value stood at 0.418 kJ/mol.

As to TGTACCACGTGTTTAG, the “relative binding free energy” value was -0.377 kJ/mol.

Take CTTGACACGTGTGGTC: the “relative binding free energy” value is 0.293 kJ/mol.

Turning to GGTATCACGTGGGCGT, the “relative binding free energy” value was 0.0837 kJ/mol.

Regarding GCGTACACGTGGGTGA, the “relative binding free energy” value is -0.209 kJ/mol.

As for GTGGTCACGTGCGTTA, the “relative binding free energy” value amounted to 0 kJ/mol.

Turning to TTTTACACGTGTTTCT, the “relative binding free energy” value was 0.167 kJ/mol.

GACGGCACGTGTTTGT: the “relative binding free energy” value came out at 0.251 kJ/mol.

With TTATGCACGTGGTGTG, the “relative binding free energy” value was -1.09 kJ/mol.

On to AAATACACGTGTGTTG, for which the “relative binding free energy” value was -0.377 kJ/mol.

Turning to TACATCACGTGGTTTT, the “relative binding free energy” value came to 0.293 kJ/mol.

Consider ACGGGCACGTGGTAAT, for which the “relative binding free energy” value was -0.502 kJ/mol.

On to TGTTACACGTGTTAAT, for which the “relative binding free energy” value was found to be 0.335 kJ/mol.

Regarding GGGAGCACGTGGGCTA, the “relative binding free energy” value was -0.92 kJ/mol.

Turning to CGTCGCACGTGTTGGA, the “relative binding free energy” value came to 0 kJ/mol.

For TGGGACACGTGGCGTT, the “relative binding free energy” value is 0.377 kJ/mol.

For GTCGTCACGTGTTGGA, the “relative binding free energy” value was found to be 0.795 kJ/mol.

On to CGGCGCACGTGTGTGA, for which the “relative binding free energy” value is -0.46 kJ/mol.

For the sequence GTTGGCACGTGAGCAG, the “relative binding free energy” value amounted to 1.17 kJ/mol.

With TGGAGCACGTGGAAAT, the “relative binding free energy” value is -0.126 kJ/mol.

For the sequence TTTTACACGTGAGAGG, the “relative binding free energy” value came out at 1.34 kJ/mol.

Regarding TGAGTCACGTGCTTGT, the “relative binding free energy” value was 0.293 kJ/mol.

As for ATGTGCACGTGTGACG, the “relative binding free energy” value stood at 0.293 kJ/mol.

As to ATATCCACGTGTTGGG, the “relative binding free energy” value is -0.209 kJ/mol.

In the case of TGAAACACGTGATGGG, the “relative binding free energy” value turned out to be 1.09 kJ/mol.

Consider TTTATCACGTGGCGGC, for which the “relative binding free energy” value stood at 0.46 kJ/mol.

As for GAATTCACGTGGGGAA, the “relative binding free energy” value amounted to 1 kJ/mol.

Consider AGGTGCACGTGTTTGT, for which the “relative binding free energy” value is -0.126 kJ/mol.

Regarding GTGAACACGTGGGCTT, the “relative binding free energy” value is -0.251 kJ/mol.

As for TAAGACACGTGTTCGG, the “relative binding free energy” value turned out to be 0.586 kJ/mol.

As to GTCGCCACGTGTAGGG, the “relative binding free energy” value was -0.335 kJ/mol.

AGTGGCACGTGATAGT: the “relative binding free energy” value was determined as 0.0837 kJ/mol.

In the case of TTAGTCACGTGTGAGA, the “relative binding free energy” value stood at 0.126 kJ/mol.

Take TATACCACGTGTGGTA: the “relative binding free energy” value was 0.0837 kJ/mol.

Turning to CGATTCACGTGTTGTT, the “relative binding free energy” value is 1.26 kJ/mol.

For TGAGTCACGTGCAGAG, the “relative binding free energy” value was 0.544 kJ/mol.

Turning to GGGCACACGTGTTGTG, the “relative binding free energy” value came out at 0.628 kJ/mol.

Turning to TTAGTCACGTGGTGGG, the “relative binding free energy” value was 0.46 kJ/mol.

Consider GAGTACACGTGTCGTG, for which the “relative binding free energy” value was determined as 0.586 kJ/mol.

With TGTAACACGTGTGCGG, the “relative binding free energy” value was -0.126 kJ/mol.

With AAGGCCACGTGGGGAG, the “relative binding free energy” value is -0.837 kJ/mol.

For the sequence AGGTTCACGTGTAGAT, the “relative binding free energy” value stood at 1.92 kJ/mol.

Turning to TAGAGCACGTGTAGTT, the “relative binding free energy” value is -0.293 kJ/mol.

On to GCTGTCACGTGTGTGA, for which the “relative binding free energy” value is 0 kJ/mol.

Turning to GTGGTCACGTGTGGAG, the “relative binding free energy” value is 1.09 kJ/mol.

Consider GTGATCACGTGGGTGC, for which the “relative binding free energy” value was 0.293 kJ/mol.

In the case of GATAGCACGTGAAGTT, the “relative binding free energy” value was 1.63 kJ/mol.

On to CGTTACACGTGGGGTC, for which the “relative binding free energy” value is 0.0418 kJ/mol.

With TTCTTCACGTGGGTGC, the “relative binding free energy” value came out at 0.628 kJ/mol.

For TTTTACACGTGGCAGA, the “relative binding free energy” value was 0.335 kJ/mol.

For CATGCCACGTGGGGTG, the “relative binding free energy” value is -1.26 kJ/mol.

In the case of GGTAGCACGTGGAGGT, the “relative binding free energy” value was -0.251 kJ/mol.

CTTAGCACGTGTTTGG: the “relative binding free energy” value was -0.126 kJ/mol.

On to TCGGACACGTGATTTG, for which the “relative binding free energy” value is 0.669 kJ/mol.

TGTGGCACGTGGATGT: the “relative binding free energy” value turned out to be 0 kJ/mol.

As for TATTACACGTGTGCTT, the “relative binding free energy” value was determined as 0.586 kJ/mol.

For TTAATCACGTGCGGTG, the “relative binding free energy” value came to 0.0837 kJ/mol.

Consider AATTGCACGTGGTAGG, for which the “relative binding free energy” value was -0.167 kJ/mol.

Regarding TTGGGCACGTGCAGAG, the “relative binding free energy” value is -0.126 kJ/mol.

AGCATCACGTGTGAGT: the “relative binding free energy” value was 0.753 kJ/mol.

As to CAGTTCACGTGTGTTT, the “relative binding free energy” value was determined as 0.837 kJ/mol.

For CGGCCCACGTGGGGGT, the “relative binding free energy” value was -1.51 kJ/mol.

With AGAGACACGTGATGTT, the “relative binding free energy” value was determined as 0.293 kJ/mol.

On to TATTGCACGTGGAATT, for which the “relative binding free energy” value came to 0.753 kJ/mol.

Consider AGGACCACGTGTTGGG, for which the “relative binding free energy” value was -0.0837 kJ/mol.

Consider TTAGGCACGTGTGAGT, for which the “relative binding free energy” value was -0.0418 kJ/mol.

GAGAGCACGTGGGGGG: the “relative binding free energy” value was -0.544 kJ/mol.

Regarding CGTGCCACGTGTTGGA, the “relative binding free energy” value turned out to be 0 kJ/mol.

Regarding TGGTACACGTGGTAGT, the “relative binding free energy” value was -0.209 kJ/mol.

Regarding AAGTGCACGTGTGTGC, the “relative binding free energy” value was -0.0418 kJ/mol.

Turning to AGGAGCACGTGGAGCG, the “relative binding free energy” value was -0.753 kJ/mol.

As for GGAGACACGTGGGTAC, the “relative binding free energy” value was -0.209 kJ/mol.
